In this assay the test system is CD2F1 mice, L1210 leukemia ip, survival T/C. Nature of the assay: NCI In Vivo Anticancer Drug Screen. Data for tumor model L1210 Leukemia (intraperitoneal) in CD2F1 (CDF1) mice. The following applies: higher = longer survival. As for the experimental part: The antitumor activity of compounds was measured in mice bearing transplantable tumors. Survival or tumor size were measured and the results are expressed as the measurement made in the treated group (T) divided by the measurement made in the vehicle treated control group (C). The tumor model used in this assay is L1210 Leukemia (intraperitoneal) in CD2F1 (CDF1) mice

The values below come from PubChem BioAssay AID256 (DTP/NCI, 2004).

SMILES strings stand for the structures. Inconclusive results and toxic doses are left out. The source holds more than one record for some entries. The list is limited to them. An entry can have further records. The records of an entry are repeated measurements (runs, samples, wells, individuals or studies). A tag in brackets gives the origin of a value. Letters hold for one entry only.

As to `O=P1(N(CCCl)CCCl)NCCCO1` (stereo unspecified), the T/C (endpoint: mean survival time, dose: 31.25 mg/kg/injection, schedule: Q01DX001 (ip), vehicle: saline) is 119 % of control and 153 % of control; the T/C (endpoint: mean survival time, dose: 80.0 mg/kg/injection, schedule: Q01DX009 (ip), vehicle: saline) was 116 % of control, 124 % of control, 177 % of control.
`COC(=O)c1ccc(OC(=O)Nc2ccc(N(CCCl)CCCl)cc2)cc1`: the T/C (endpoint: mean survival time, dose: 100.0 mg/kg/injection, schedule: Q01DX001 (ip), vehicle: Klucel (hydroxypropylcellulose) (HPC)) was 115 % of control and 153 % of control; the T/C (endpoint: mean survival time, dose: 200.0 mg/kg/injection, schedule: Q01DX001 (ip), vehicle: Klucel (hydroxypropylcellulose) (HPC)) was 112 % of control and 152 % of control; the T/C (endpoint: mean survival time, dose: 400.0 mg/kg/injection, schedule: Q01DX001 (ip), vehicle: Klucel (hydroxypropylcellulose) (HPC)) is 123 % of control and 155 % of control.
Consider `Nc1nc(N)c2cc(CNc3ccc(C(=O)NC(CC(=O)O)CC(=O)O)cc3)ccc2n1`, for which the T/C (endpoint: mean survival time, dose: 12.5 mg/kg/injection, schedule: Q01DX009 (ip), vehicle: Klucel (hydroxypropylcellulose) (HPC)) was 120 % of control and 185 % of control; the T/C (endpoint: mean survival time, dose: 100.0 mg/kg/injection, schedule: Q01DX009 (ip), vehicle: Klucel (hydroxypropylcellulose) (HPC)) is 113 % of control and 151 % of control.
Consider `CCOC(=O)CCC(NC(=O)c1ccc(N(CC)Cc2cnc3nc(N)nc(N)c3n2)cc1)C(=O)OCC` (stereo unspecified), for which the T/C (endpoint: mean survival time, dose: 6.25 mg/kg/injection, schedule: Q01DX009 (ip), vehicle: Klucel (hydroxypropylcellulose) (HPC)) was 86 % of control and 152 % of control.
As to `O=c1n(CC2CO2)c(=O)n(CC2CO2)c(=O)n1CC1CO1` (stereo unspecified), the T/C (endpoint: mean survival time, dose: 100.0 mg/kg/injection, schedule: Q01DX009 (ip), vehicle: saline) is 100 % of control [sample A] and 156 % of control [sample B]; the T/C (endpoint: median survival time, dose: 100.0 mg/kg/injection, schedule: Q01DX009 (oral), vehicle: saline) was 178 % of control [sample A] and 116 % of control [sample B]; the T/C (endpoint: median survival time, dose: 100.0 mg/kg/injection, schedule: Q04DX003 (ip), vehicle: saline) was 111 % of control [sample A] and 160 % of control [sample B]; the T/C (endpoint: median survival time, dose: 400.0 mg/kg/injection, schedule: Q01DX001 (oral), vehicle: saline) is 163 % of control [sample A] and 118 % of control [sample B]; the T/C (endpoint: median survival time, dose: 400.0 mg/kg/injection, schedule: Q08DX002 (oral), vehicle: saline) was 187 % of control [sample A] and 116 % of control [sample B].
As to `Nc1n[nH]c(N)n1`, the T/C (endpoint: mean survival time, dose: 800.0 mg/kg/injection, schedule: Q03HX024 (ip), vehicle: saline) is 93 % of control and 181 % of control.
As to `COc1ccc(/C=C/C(CC(NO)c2ccc(OC)cc2)=N/O)cc1` (stereo unspecified), the T/C (endpoint: mean survival time, dose: 100.0 mg/kg/injection, schedule: Q01DX001 (ip), vehicle: saline with Tween-80) was 101 % of control and 163 % of control.
In the case of `O=C(O)C(O)C(O)C(O)C(O)CO.[NH-]C1CCCCC1[NH-].[Pt+2]` (stereo unspecified), the T/C (endpoint: mean survival time, dose: 3.12 mg/kg/injection, schedule: Q04DX003 (ip), vehicle: saline) is 114 % of control [sample A] and 172 % of control [sample B].
Consider `C#CCN(Cc1ccc2nc(N)[nH]c(=O)c2c1)c1ccc(C(=O)NC(CCC(=O)O)C(=O)O)cc1` (stereo unspecified), for which the T/C (endpoint: median survival time, dose: 240.0 mg/kg/injection, schedule: Q01DX005 (ip), vehicle: water) was 87 % of control and 160 % of control.
In the case of `O=C(O)CCC(O)C(=O)O.[NH-]C1CCCCC1[NH-].[Pt+2]` (stereo unspecified), for the setting “endpoint: median survival time, dose: 12.5 mg/kg/injection, schedule: Q04DX003 (ip), vehicle: saline”, the T/C is 124 % of control and 154 % of control.
Regarding `Cc1c2ccncc2c(C)c2c1[nH]c1ccccc12`, the T/C was 111 % of control and 151 % of control (endpoint: mean survival time, dose: 100.0 mg/kg/injection, schedule: Q04DX003 (oral), vehicle: other); 101 % of control and 153 % of control (endpoint: mean survival time, dose: 100.0 mg/kg/injection, schedule: Q04DX003 (oral), vehicle: water).
For the compound `CC(CCC(C)OS(C)(=O)=O)OS(C)(=O)=O` (stereo unspecified), the T/C by setting is: (endpoint: mean survival time, dose: 16.0 mg/kg/injection, schedule: Q01DX009 (ip), vehicle: saline) 120 % of control and 158 % of control; (endpoint: mean survival time, dose: 32.0 mg/kg/injection, schedule: Q01DX009 (ip), vehicle: saline) 88 % of control and 150 % of control.
With `C=C1C(=O)OC(CCCCCCCCCCCCC)C1C(=O)O` (stereo unspecified), the T/C (endpoint: mean survival time, dose: 40.0 mg/kg/injection, schedule: Q04DX002 (ip), vehicle: saline with Tween-80) was 103 % of control and 200 % of control.
As to `CC[C@]1(O)C[C@H]2CN(CCc3c([nH]c4ccccc34)[C@@](C(=O)OC)(c3cc4c(cc3OC)N(C=O)[C@H]3[C@@](O)(C(=O)OC)[C@H](OC(C)=O)[C@]5(CC)C=CCN6CC[C@]43[C@@H]65)C2)C1`, the T/C (endpoint: mean survival time, dose: 1.8 mg/kg/injection, schedule: Q04DX003 (ip), vehicle: water) is 124 % of control and 156 % of control.
Consider `C1CN1c1nc(N2CC2)nc(N2CC2)n1`, for which the T/C (endpoint: mean survival time, dose: 1.0 mg/kg/injection, schedule: Q01DX009 (ip), vehicle: saline) is 88 % of control and 160 % of control.
On to `CN(C)N=Nc1ccc([N+](=O)[O-])cc1C(N)=O`, for which the T/C (endpoint: mean survival time, dose: 150.0 mg/kg/injection, schedule: Q01DX009 (ip), vehicle: Klucel (hydroxypropylcellulose) (HPC)) was 119 % of control and 166 % of control.
As for `CC1OC(OC2CC(O)(C(=O)CO)Cc3c(O)c4c(c(O)c32)C(=O)c2ccccc2C4=O)CC(N)C1O` (stereo unspecified), under “endpoint: mean survival time, dose: 0.5 mg/kg/injection, schedule: Q01DX009 (ip), vehicle: water”, the T/C was 110 % of control and 161 % of control.
With `CC1CCC(NC(=O)N(CCCl)N=O)CC1` (stereo unspecified), the T/C was 96 % of control and 375 % of control (endpoint: median survival time, dose: 25.0 mg/kg/injection, schedule: Q01DX001 (ip), vehicle: saline); 121 % of control, 213 % of control, 377 % of control (endpoint: median survival time, dose: 30.0 mg/kg/injection, schedule: Q01DX001 (oral), vehicle: saline with Tween-80); 123 % of control and 375 % of control (endpoint: median survival time, dose: 50.0 mg/kg/injection, schedule: Q01DX001 (ip), vehicle: saline).
For `Nc1nc([S-])c2[nH]cnc2n1.[Cl-].[Cl-].[H+].[Pd+2].[Pd+2].[Pd+2]`, under “endpoint: mean survival time, dose: 50.0 mg/kg/injection, schedule: Q04DX003 (ip), vehicle: suspension in saline”, the T/C was 121 % of control and 153 % of control.
